Results are given in words; binding and its absence hold for the method and conditions named. In cells and extracts the contact can be indirect. Some binding calls cover weakened binding; strength is not graded here. Tags and fused reporters may be left off the sequences shown.
What was measured:
[1] = molecular target: T1, UBP12 fused to a Venus (YFP) fragment for BiFC (Arabidopsis thaliana) (UniProt Q9FPT1); assay: split reporter; BiFC with N- and C-terminal halves of Venus (YFP) in Arabidopsis (Col-0) protoplasts, imaged 14-18 h after transfection in low light
T1 sequence: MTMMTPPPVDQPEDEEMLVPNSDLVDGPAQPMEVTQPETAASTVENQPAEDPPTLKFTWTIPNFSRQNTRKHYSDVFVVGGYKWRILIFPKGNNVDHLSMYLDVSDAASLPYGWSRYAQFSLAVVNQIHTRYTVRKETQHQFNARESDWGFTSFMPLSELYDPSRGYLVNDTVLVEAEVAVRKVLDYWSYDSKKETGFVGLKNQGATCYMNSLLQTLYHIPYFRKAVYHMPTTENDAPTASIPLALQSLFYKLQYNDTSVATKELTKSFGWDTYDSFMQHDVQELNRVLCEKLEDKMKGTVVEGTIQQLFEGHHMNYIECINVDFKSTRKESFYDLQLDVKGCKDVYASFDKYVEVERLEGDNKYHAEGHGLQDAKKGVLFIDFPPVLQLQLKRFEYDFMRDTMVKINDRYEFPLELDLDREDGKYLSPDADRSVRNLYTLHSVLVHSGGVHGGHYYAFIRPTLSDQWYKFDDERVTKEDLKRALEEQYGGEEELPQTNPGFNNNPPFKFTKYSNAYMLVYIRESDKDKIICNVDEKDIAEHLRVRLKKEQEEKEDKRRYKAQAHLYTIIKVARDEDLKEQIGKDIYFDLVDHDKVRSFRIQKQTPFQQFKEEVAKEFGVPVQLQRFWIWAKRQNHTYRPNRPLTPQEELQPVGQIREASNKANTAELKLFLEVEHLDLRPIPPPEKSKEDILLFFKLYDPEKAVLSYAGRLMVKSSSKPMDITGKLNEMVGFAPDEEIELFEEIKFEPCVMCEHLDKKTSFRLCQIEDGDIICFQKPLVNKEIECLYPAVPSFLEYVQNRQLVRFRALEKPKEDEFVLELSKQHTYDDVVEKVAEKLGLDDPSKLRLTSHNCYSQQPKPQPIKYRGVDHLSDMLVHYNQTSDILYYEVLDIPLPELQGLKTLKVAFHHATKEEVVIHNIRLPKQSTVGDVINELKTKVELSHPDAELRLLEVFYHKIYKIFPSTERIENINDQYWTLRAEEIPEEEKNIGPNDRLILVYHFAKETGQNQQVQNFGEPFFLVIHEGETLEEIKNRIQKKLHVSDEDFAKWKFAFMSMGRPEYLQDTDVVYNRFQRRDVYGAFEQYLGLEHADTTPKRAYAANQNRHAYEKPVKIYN

[2] = molecular target: T2, UBP13 fused to a Venus (YFP) fragment for BiFC (Arabidopsis thaliana) (UniProt Q84WU2); assay: as above
T2 sequence: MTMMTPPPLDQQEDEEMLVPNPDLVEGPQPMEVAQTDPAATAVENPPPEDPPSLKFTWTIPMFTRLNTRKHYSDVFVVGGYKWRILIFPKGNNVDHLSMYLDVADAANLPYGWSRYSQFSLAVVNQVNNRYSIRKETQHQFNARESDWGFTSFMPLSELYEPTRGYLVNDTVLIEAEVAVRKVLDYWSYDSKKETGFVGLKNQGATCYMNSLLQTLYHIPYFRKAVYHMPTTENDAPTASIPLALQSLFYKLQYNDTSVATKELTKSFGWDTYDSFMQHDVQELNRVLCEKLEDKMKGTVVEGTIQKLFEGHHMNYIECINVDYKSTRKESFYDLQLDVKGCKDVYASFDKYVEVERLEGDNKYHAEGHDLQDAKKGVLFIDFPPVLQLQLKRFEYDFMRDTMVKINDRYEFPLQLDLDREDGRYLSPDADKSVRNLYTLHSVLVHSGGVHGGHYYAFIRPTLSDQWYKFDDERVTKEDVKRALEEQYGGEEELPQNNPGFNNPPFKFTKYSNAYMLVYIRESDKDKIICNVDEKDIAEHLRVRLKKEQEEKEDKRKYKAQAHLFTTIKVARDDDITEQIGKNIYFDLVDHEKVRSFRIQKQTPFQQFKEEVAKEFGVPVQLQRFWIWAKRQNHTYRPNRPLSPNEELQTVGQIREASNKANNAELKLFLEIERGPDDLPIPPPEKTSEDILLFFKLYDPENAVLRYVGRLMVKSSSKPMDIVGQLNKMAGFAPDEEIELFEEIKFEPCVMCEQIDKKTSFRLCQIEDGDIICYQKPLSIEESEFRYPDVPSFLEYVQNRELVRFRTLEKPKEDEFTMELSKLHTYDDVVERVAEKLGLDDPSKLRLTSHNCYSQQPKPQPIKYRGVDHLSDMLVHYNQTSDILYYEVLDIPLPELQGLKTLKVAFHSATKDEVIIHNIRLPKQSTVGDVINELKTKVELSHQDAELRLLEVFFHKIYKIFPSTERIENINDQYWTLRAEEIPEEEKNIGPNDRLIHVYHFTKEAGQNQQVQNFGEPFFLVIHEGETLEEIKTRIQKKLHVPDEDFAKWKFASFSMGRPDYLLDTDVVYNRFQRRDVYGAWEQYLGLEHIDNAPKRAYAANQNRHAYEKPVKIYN

B1: GI fused to a Venus (YFP) fragment for BiFC (protein, UniProt Q9SQI2 1-1173)
chain: MASSSSSERWIDGLQFSSLLWPPPRDPQQHKDQVVAYVEYFGQFTSEQFPDDIAELVRHQYPSTEKRLLDDVLAMFVLHHPEHGHAVILPIISCLIDGSLVYSKEAHPFASFISLVCPSSENDYSEQWALACGEILRILTHYNRPIYKTEQQNGDTERNCLSKATTSGSPTSEPKAGSPTQHERKPLRPLSPWISDILLAAPLGIRSDYFRWCSGVMGKYAAGELKPPTIASRGSGKHPQLMPSTPRWAVANGAGVILSVCDDEVARYETATLTAVAVPALLLPPPTTSLDEHLVAGLPALEPYARLFHRYYAIATPSATQRLLLGLLEAPPSWAPDALDAAVQLVELLRAAEDYASGVRLPRNWMHLHFLRAIGIAMSMRAGVAADAAAALLFRILSQPALLFPPLSQVEGVEIQHAPIGGYSSNYRKQIEVPAAEATIEATAQGIASMLCAHGPEVEWRICTIWEAAYGLIPLNSSAVDLPEIIVATPLQPPILSWNLYIPLLKVLEYLPRGSPSEACLMKIFVATVETILSRTFPPESSRELTRKARSSFTTRSATKNLAMSELRAMVHALFLESCAGVELASRLLFVVLTVCVSHEAQSSGSKRPRSEYASTTENIEANQPVSNNQTANRKSRNVKGQGPVAAFDSYVLAAVCALACEVQLYPMISGGGNFSNSAVAGTITKPVKINGSSKEYGAGIDSAISHTRRILAILEALFSLKPSSVGTPWSYSSSEIVAAAMVAAHISELFRRSKALTHALSGLMRCKWDKEIHKRASSLYNLIDVHSKVVASIVDKAEPLEAYLKNTPVQKDSVTCLNWKQENTCASTTCFDTAVTSASRTEMNPRGNHKYARHSDEGSGRPSEKGIKDFLLDASDLANFLTADRLAGFYCGTQKLLRSVLAEKPELSFSVVSLLWHKLIAAPEIQPTAESTSAQQGWRQVVDALCNVVSATPAKAAAAVVLQAERELQPWIAKDDEEGQKMWKINQRIVKVLVELMRNHDRPESLVILASASDLLLRATDGMLVDGEACTLPQLELLEATARAIQPVLAWGPSGLAVVDGLSNLLKCRLPATIRCLSHPSAHVRALSTSVLRDIMNQSSIPIKVTPKLPTTEKNGMNSPSYRFFNAASIDWKADIQNCLNWEAHSLLSTTMPTQFLDTAARELGCTISLSQ
B1 was tested, and the binding [1] was “binds” and the binding [2] was “binds”.

Source: article PMC6704089
